From the supplement of paper PMC4967469
A lower IC50 marks a more sensitive line; a fit beyond the top or the lowest dose is shown as a bound at that dose. AUC sums up the same curve from the lowest dose to the 256-fold higher top dose: 1 means no effect, lower means more sensitive. For some assays here: Any top dose called inferred was derived from the fitted curves, not read from the paper. For some assays here: Drugs with an entry number were screened twice under separate entries, and the two screens often disagree.

Key:
Assay in all cases: Viability of human cancer cell lines after 72 h of drug (GDSC screen)
[1] = compound: COc1cc2c(NC3CCN(C(C)C)CC3)nc(C3CCCCC3)nc2cc1OCCCN1CCCC1 [UNC0638]
Protocol: (§1)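 Human cancer cell lines in 384-well plates, medium with 10% serum, drug for 72 h over a 256-fold dose range (nine 2-fold or five 4-fold steps up to the top dose). Adherent lines were fixed and stained with the nucleic acid dye Syto60, suspension lines read with resazurin; signal relative to control wells, capped at 0 and 100%. One two-parameter sigmoid per drug and line, fitted in a mixed model over all curves with the slope shared within a line.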

[2] = compound: O=C(NCCCNc1nc(Nc2cccc(NC(=O)N3CCCC3)c2)ncc1I)c1cccs1 [BX-795]; conditions: top dose 5 µM; top dose inferred
Protocol: as §1

[3] = compound: CCn1c(-c2nonc2N)nc2c(C#CC(C)(C)O)ncc(OC[C@H]3CCCNC3)c21 [GSK690693]; conditions: top dose 10.24 µM; top dose inferred
Protocol: as §1

[4] = compound: CC1=C(/C=C/C(C)=C/C=C/C(C)=C/C(=O)O)C(C)(C)CCC1 [Tretinoin]; conditions: top dose 10 µM; top dose inferred
Protocol: as §1

[5] = compound: Oc1cccc(-c2nc(N3CCOCC3)c3oc4ncccc4c3n2)c1 [PI-103]; conditions: top dose 10.24 µM
Protocol: as §1

[6] = compound: Cc1cccc(-c2[nH]c(C(C)(C)C)nc2-c2ccc3c(c2)OCO3)n1 [SB-505124]; conditions: top dose 10 µM; top dose inferred
Protocol: as §1

[7] = top dose 20 µM, screen: GDSC drug entry 1236, top dose inferred
[8] = top dose 40 µM, screen: GDSC drug entry 245

| Cell Line | AUC [1, 7] | IC50 [1, 7] | AUC [1, 8] | IC50 [1, 8] | AUC [2] | IC50 [2] | AUC [3] | IC50 [3] | AUC [4] | IC50 [4] | AUC [5] | IC50 [5] | AUC [6] | IC50 [6] |
| --- | --- | --- | --- | --- | --- | --- | --- | --- | --- | --- | --- | --- | --- | --- |
| NCC021 (kidney, adherent) | 0.958 | > 20 µM | 0.853 | 39.7 µM | 0.729 | 1.59 µM | 0.946 | > 10.2 µM | 0.975 | > 10 µM | 0.446 | 0.444 µM | 0.973 | > 10 µM |
| NCI-H28 (mesothelioma, adherent) | 0.786 | 11.7 µM | 0.849 | > 40 µM | 0.799 | 3.31 µM | 0.968 | > 10.2 µM | 0.939 | > 10 µM | 0.919 | > 10.2 µM | 0.978 | > 10 µM |
| NCI-H358 (lung adenocarcinoma, adherent) | 0.939 | > 20 µM | 0.75 | 14.3 µM | 0.976 | > 5 µM | 0.934 | > 10.2 µM | 0.946 | > 10 µM | 0.44 | 0.431 µM | 0.973 | > 10 µM |
| NCI-H460 (large cell lung carcinoma, adherent) | 0.862 | 14.5 µM | 0.952 | > 40 µM | 0.841 | 3.01 µM | 0.99 | > 10.2 µM | 0.99 | > 10 µM | 0.989 | > 10.2 µM | 0.989 | > 10 µM |
| NCI-H520 (lung squamous cell carcinoma, adherent) | 0.832 | 13.4 µM | 0.603 | 4.85 µM | 0.987 | > 5 µM | 0.663 | 1.84 µM | 0.987 | > 10 µM | 0.189 | 0.0723 µM | 0.986 | > 10 µM |
| NCI-H596 (lung adenocarcinoma, adherent) | 0.826 | 17.2 µM | 0.7 | 10.9 µM | 0.934 | > 5 µM | 0.82 | 8.28 µM | 0.967 | > 10 µM | 0.401 | 0.315 µM | 0.979 | > 10 µM |
| NCI-H630 (large intestine, adherent) | 0.982 | > 20 µM | 0.906 | > 40 µM | 0.941 | > 5 µM | 0.988 | > 10.2 µM | 0.979 | > 10 µM | 0.969 | > 10.2 µM | 0.987 | > 10 µM |
| NCI-H650 (lung adenocarcinoma, adherent) | 0.924 | > 20 µM | 0.853 | 36.2 µM | 0.822 | 3.3 µM | 0.983 | > 10.2 µM | 0.937 | > 10 µM | 0.539 | 0.827 µM | 0.985 | > 10 µM |
| NCI-H661 (large cell lung carcinoma, adherent) | 0.825 | 15.5 µM | 0.717 | 11.8 µM | 0.88 | > 5 µM | 0.939 | > 10.2 µM | 0.964 | > 10 µM | 0.679 | 2.27 µM | 0.786 | 5.33 µM |
| NCI-H727 (lung carcinoid, adherent) | 0.778 | 14.6 µM | 0.783 | 30.9 µM | 0.907 | > 5 µM | 0.959 | > 10.2 µM | 0.975 | > 10 µM | 0.699 | 3.4 µM | 0.971 | > 10 µM |
| NCI-H810 (large cell lung carcinoma, adherent) | 0.789 | 8.45 µM | 0.641 | 6.02 µM | 0.832 | 3.02 µM | 0.934 | > 10.2 µM | 0.985 | > 10 µM | 0.46 | 0.501 µM | 0.987 | > 10 µM |
| NCI-H838 (lung adenocarcinoma, adherent) | 0.926 | > 20 µM | 0.882 | > 40 µM | 0.806 | 2.66 µM | 0.981 | > 10.2 µM | 0.987 | > 10 µM | 0.987 | > 10.2 µM | 0.929 | > 10 µM |
| NCI-H841 (small cell lung carcinoma, adherent) | 0.987 | > 20 µM | 0.823 | 23.6 µM | 0.856 | 4.06 µM | 0.984 | > 10.2 µM | 0.988 | > 10 µM | 0.593 | 1.15 µM | 0.947 | > 10 µM |
| NCI-H1435 (lung adenocarcinoma, semi-adherent) | 0.87 | 15.3 µM | 0.85 | 25.3 µM | 0.885 | 4.45 µM | 0.993 | > 10.2 µM | 0.972 | > 10 µM | 0.993 | > 10.2 µM | 0.992 | > 10 µM |
| NCI-H1437 (lung adenocarcinoma, adherent) | 0.874 | > 20 µM | 0.804 | 21 µM | 0.881 | > 5 µM | 0.961 | > 10.2 µM | 0.943 | > 10 µM | 0.519 | 0.72 µM | 0.985 | > 10 µM |
| NCI-H1563 (lung adenocarcinoma, adherent) | 0.862 | > 20 µM | 0.793 | 22.3 µM | 0.97 | > 5 µM | 0.945 | > 10.2 µM | 0.985 | > 10 µM | 0.902 | > 10.2 µM | 0.947 | > 10 µM |
